For the assay, the target named is Nonstructural protein 3 (Zika virus) (UniProt A0A024AXB9).
Setting [1] is: PRVABC59, Concentration 10.0 uM, Number of replicates 1.0.
Where [2] appears, read: PRVABC59, Concentration 50.0 uM, Number of replicates 1.0.
[3] abbreviates: PRVABC59, Concentration 15.0 uM, Number of replicates 1.0.

Screen size: about 2,700 compounds; about 160 (5.9%) showed an effect of 50% or more. The list shows a part of the results.

Inhibition data for 53 compounds are collected here from ChEMBL document CHEMBL5606458, “ASAP - ZIKV NS2B-NS3 protease fluorescence single point” (2024).

Chain of UniProt A0A024AXB9 (A0A024AXB9 as listed by the source): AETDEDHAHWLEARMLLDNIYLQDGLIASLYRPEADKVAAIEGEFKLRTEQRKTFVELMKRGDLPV

In the case of `O=Cc1ccc(N2CCC(C(=O)NCc3cccc([N+](=O)[O-])c3)CC2)cc1`, the inhibition (commonly the drop in the measured response relative to a control, in per cent) under setting [1] came to 25.2%.

As to `O=Cc1ccc(N2CCC(C(=O)NCCCCN3CCOCC3)CC2)cc1`, the inhibition under setting [2] is 19.4%.

Take `Cc1cc(NC(=O)c2cc(Cl)ccc2NS(=O)(=O)c2ccc(Oc3ccccc3Cl)cc2)ncc1I`: the inhibition under setting [3] came to 24.9%.

In the case of `O=S(=O)(Nc1ccccc1)c1ccc(Oc2ccccc2Cl)cc1`, the inhibition was 4.97% (PRVABC59, Concentration 49.5 uM, Number of replicates 2.0, Standard deviation 2.4375488222864568 %); 6.09% (PRVABC59, Concentration 99.01 uM, Number of replicates 2.0, Standard deviation 2.5594260442371675 %); 7.77% (PRVABC59, Concentration 198.0 uM, Number of replicates 2.0, Standard deviation 3.6345597809704175 %).

With `O=Cc1ccc(N2CCC(C(=O)Nc3ccc(Cl)nc3Cl)CC2)cc1`, the inhibition under setting [2] was 20.5%.

Turning to `O=Cc1ccc(N2CCC(C(=O)Nc3ccc(I)cc3)CC2)cc1`, the inhibition under setting [2] is 20.3%.

In the case of `COc1cc(Cl)nc(NC(=O)C2CCN(c3ccc(C=O)cc3)CC2)n1`, under setting [2], the inhibition came out at 26.4%.

As to `Cc1cc(CO)c2cccc(Cc3ccccc3C(=O)N(c3ncccn3)S(=O)(=O)c3ccc(N)cc3)c2n1`, the inhibition (PRVABC59, Concentration 49.95 uM, Number of replicates 2.0, Standard deviation 0.5295893128804832 %) came out at 2.68% and the inhibition (PRVABC59, Concentration 99.9 uM, Number of replicates 2.0, Standard deviation 0.15206043463069627 %) amounted to 8.61%.

In the case of `CCOc1ccc(CCNC(=O)c2cc(Cl)ccc2NS(=O)(=O)c2ccc(Oc3ccccc3Cl)cc2)cc1`, the inhibition under setting [3] was determined as 24.1%.

`Cn1cc(NC(=O)c2ccccc2C(F)(F)F)c(-c2ccc3oc(=O)[nH]c3c2)n1`: the inhibition reads like this: (PRVABC59, Concentration 49.5 uM, Number of replicates 2.0, Standard deviation 0.7842352610803925 %) 1.48%; (PRVABC59, Concentration 99.01 uM, Number of replicates 2.0, Standard deviation 0.1277079855611017 %) 3.29%; (PRVABC59, Concentration 198.0 uM, Number of replicates 2.0, Standard deviation 1.2159242726595276 %) 4.84%.

Regarding `O=C(NCc1c(F)cc(F)c(F)c1F)c1cc(Cl)ccc1NS(=O)(=O)c1ccc(Oc2ccccc2Cl)cc1`, under setting [3], the inhibition is 38.5%.

Take `CS(=O)(=O)c1ccc(O)c(NC(=O)c2cc(Cl)ccc2NS(=O)(=O)c2ccc(Oc3ccccc3Cl)cc2)c1`: under setting [3], the inhibition stood at 32.3%.

`O=Cc1ccc(N2CCC(C(=O)Nc3ccc(-c4ccccn4)cc3)CC2)cc1`: under setting [2], the inhibition was 20.4%.

Regarding `CCCc1nn(C)c(C(N)=O)c1NC(=O)C1CCN(c2ccc(C=O)cc2)CC1`, the inhibition under setting [2] came to 11%.

On to `O=Cc1ccc(N2CCC(C(=O)Nc3cc(Cl)ccc3OC(F)(F)F)CC2)cc1`, for which, under setting [2], the inhibition amounted to 24.5%.

Regarding `CC(C)(CC(=O)N1CCCC1)NC(=O)C1CCN(c2ccc(C=O)cc2)CC1`, the inhibition under setting [2] was determined as 26.7%.

Consider `CCCCN(Cc1ccc(F)cc1)C(=O)c1cc(Cl)ccc1NS(=O)(=O)c1ccc(Oc2ccccc2Cl)cc1`, for which the inhibition under setting [3] was found to be 25.8%.

`Cc1cc(CO)c2cccc(C[C@H](NC(=O)[C@H](N)CCO)C(=O)O)c2n1`: the inhibition is -7.31% (PRVABC59, Concentration 49.95 uM, Number of replicates 2.0, Standard deviation 1.9119132209710834 %) and -6.54% (PRVABC59, Concentration 99.9 uM, Number of replicates 2.0, Standard deviation 1.3599169575482686 %).

As to `Cc1cc(N)c2c(Cl)ccc(Cl)c2n1`, where the note is “PRVABC59, Concentration 49.95 uM, Number of replicates 2.0, Standard deviation 14.266771188329304 %”, the inhibition was -9.58%.

With `O=Cc1ccc(N2CCC(C(=O)N3CCCC[C@H]3C(=O)N3CCCC3)CC2)cc1`, under setting [2], the inhibition was 21.1%.

Regarding `Cc1cc(CO)c2cccc(Cc3cccc(NC(=O)c4nc(N)n[nH]4)c3)c2n1`, the inhibition was -0.767% (PRVABC59, Concentration 49.95 uM, Number of replicates 2.0, Standard deviation 3.2981012364268594 %) and 4.54% (PRVABC59, Concentration 99.9 uM, Number of replicates 2.0, Standard deviation 3.2421151330326254 %).

In the case of `CNC(=O)c1cc2cc(Cl)ccc2n1S(=O)(=O)c1ccc(Oc2ccccc2Cl)cc1`, the inhibition reads like this: (PRVABC59, Concentration 49.5 uM, Number of replicates 2.0, Standard deviation 1.7155938749569153 %) 6.93%; (PRVABC59, Concentration 99.01 uM, Number of replicates 2.0, Standard deviation 2.1715802918214897 %) 10.6%; (PRVABC59, Concentration 198.0 uM, Number of replicates 2.0, Standard deviation 0.15575789335686 %) 14.1%.

As for `CN(Cc1cc([N+](=O)[O-])ccc1Cl)C(=O)C1CCN(c2ccc(C=O)cc2)CC1`, the inhibition under setting [2] stood at 26.6%.

In the case of `O=C(NCCOc1ccc(F)cc1)c1cc(Cl)ccc1NS(=O)(=O)c1ccc(Oc2ccccc2Cl)cc1`, the inhibition under setting [3] was 36.7%.

As to `CC(C)(C)c1csc(NC(=O)C2CCN(c3ccc(C=O)cc3)CC2)n1`, under setting [2], the inhibition turned out to be 24.2%.

In the case of `O=C(Nc1nc2[nH]cnc2c(=O)[nH]1)c1cc(Cl)ccc1NS(=O)(=O)c1ccc(Oc2ccccc2Cl)cc1`, the inhibition under setting [3] turned out to be 21.9%.

Consider `O=C(NCCCSc1ccccc1)c1cc(Cl)ccc1NS(=O)(=O)c1ccc(Oc2ccccc2Cl)cc1`, for which the inhibition under setting [3] was 21.8%.

As for `Cc1cc(F)cc(Br)c1NC(=O)C1CCN(c2ccc(C=O)cc2)CC1`, the inhibition under setting [2] was 25.6%.

For `Cc1cc(CO)c2cccc(Cc3cccc(NC(=O)CNC4CC4)c3)c2n1`, the inhibition (PRVABC59, Concentration 49.95 uM, Number of replicates 2.0, Standard deviation 2.20382385319093 %) is -2.08% and the inhibition (PRVABC59, Concentration 99.9 uM, Number of replicates 2.0, Standard deviation 2.3107066172874657 %) was determined as 1.16%.

Take `CCOCCN(CCOCC)C(=O)c1cc(Cl)ccc1NS(=O)(=O)c1ccc(Oc2ccccc2Cl)cc1`: the inhibition under setting [3] stood at 18.3%.

Regarding `Cc1cccc(N2CCN(C(=O)c3cc(Cl)ccc3NS(=O)(=O)c3ccc(Oc4ccccc4Cl)cc3)CC2)n1`, the inhibition under setting [3] was determined as 14%.

For the compound `NCc1cccc(NC(=O)C2CN(C(=O)OCc3ccccc3)C2)c1`, the inhibition runs as follows: (PRVABC59, Concentration 49.5 uM, Number of replicates 2.0, Standard deviation 0.7047125451631892 %) 1.12%; (PRVABC59, Concentration 99.01 uM, Number of replicates 2.0, Standard deviation 1.0691153353532887 %) 3.88%; (PRVABC59, Concentration 198.0 uM, Number of replicates 2.0, Standard deviation 0.2800776094724739 %) 10.1%.

In the case of `COCCOCCOCCNC(=O)c1cc(Cl)ccc1NS(=O)(=O)c1ccc(Oc2ccccc2Cl)cc1`, the inhibition under setting [3] came to 2.49%.

With `COc1cc(Cc2ccnc(F)c2)nc(N2CCNCC2)n1`, the inhibition was determined as 1.94% (PRVABC59, Concentration 49.5 uM, Number of replicates 2.0, Standard deviation 2.56230025910808 %); 4.24% (PRVABC59, Concentration 99.01 uM, Number of replicates 2.0, Standard deviation 2.772155012837961 %); 5.13% (PRVABC59, Concentration 198.0 uM, Number of replicates 2.0, Standard deviation 0.028498687438702285 %).

As to `Cc1cc(CO)c2cccc(NC(=O)COc3cccc(CN)c3)c2n1`, the inhibition runs as follows: (PRVABC59, Concentration 49.95 uM, Number of replicates 2.0, Standard deviation 14.336839228160605 %) 5.84%; (PRVABC59, Concentration 99.9 uM, Number of replicates 2.0, Standard deviation 17.14198241074065 %) 9.26%.

`C#CCN(Cc1ccccc1Cl)C(=O)c1cc(Cl)ccc1NS(=O)(=O)c1ccc(Oc2ccccc2Cl)cc1`: under setting [3], the inhibition came to 37.5%.

For `C[C@@H](CC(C)(C)c1ccccc1)NC(=O)C1CCN(c2ccc(C=O)cc2)CC1`, the inhibition under setting [2] came to 25.7%.

For the compound `O=Cc1ccc(N2CCC(C(=O)N(Cc3ccccc3)[C@H]3CCS(=O)(=O)C3)CC2)cc1`, under setting [2], the inhibition amounted to 24.8%.

On to `O=Cc1ccc(N2CCC(C(=O)Nc3ccc(Br)c([N+](=O)[O-])c3)CC2)cc1`, for which the inhibition under setting [2] is 37.7%.

`O=Cc1ccc(N2CCC(C(=O)Nc3cc(Cl)c(Br)cn3)CC2)cc1`: the inhibition under setting [2] was found to be 21.4%.

In the case of `O=C(c1cc(Cl)ccc1NS(=O)(=O)c1ccc(Oc2ccccc2Cl)cc1)N1CCC(N2CCc3ccccc3C2)CC1`, the inhibition under setting [3] is 4.87%.

`COc1cccc(CNC(=O)C2CCN(c3ccc(C=O)cc3)CC2)c1OC`: under setting [1], the inhibition was 14.4%.

Regarding `Cc1cc(CO)c2cccc(Cc3ccccc3C(=O)NCC(N)=O)c2n1`, the inhibition runs as follows: (PRVABC59, Concentration 49.95 uM, Number of replicates 2.0, Standard deviation 0.4299636038947961 %) -6.99%; (PRVABC59, Concentration 99.9 uM, Number of replicates 2.0, Standard deviation 1.2112392289790566 %) -0.356%.

`O=C(Nc1ccc(Br)c(C(F)(F)F)c1)c1cc(Cl)ccc1NS(=O)(=O)c1ccc(Oc2ccccc2Cl)cc1`: under setting [3], the inhibition was 29.1%.

As to `CCn1ncc(-c2nn(C)cc2NC(=O)c2ccccc2C(F)(F)F)c1F`, the inhibition runs as follows: (PRVABC59, Concentration 49.5 uM, Number of replicates 2.0, Standard deviation 0.5750886903093277 %) -2.16%; (PRVABC59, Concentration 99.01 uM, Number of replicates 2.0, Standard deviation 1.5049834176965216 %) -1.48%; (PRVABC59, Concentration 198.0 uM, Number of replicates 2.0, Standard deviation 0.7449247690337362 %) -1.24%.

Consider `C[C@H](NC(=O)c1cc(Cl)ccc1NS(=O)(=O)c1ccc(Oc2ccccc2Cl)cc1)c1ccc(Cl)cc1Cl`, for which the inhibition under setting [3] came out at 38.5%.

Turning to `CC(C)(C)c1ccc(O)c(NC(=O)c2cc(Cl)ccc2NS(=O)(=O)c2ccc(Oc3ccccc3Cl)cc2)c1`, the inhibition under setting [3] stood at 48.6%.

For `O=Cc1ccc(N2CCC(C(=O)NCc3ccc(F)c(Br)c3)CC2)cc1`, the inhibition under setting [1] was 1.29%.

On to `CC(C)N(C[C@H](O)COc1ccc(CC(N)=O)cc1)C(=O)c1cc(Cl)ccc1NS(=O)(=O)c1ccc(Oc2ccccc2Cl)cc1`, for which, under setting [3], the inhibition worked out at 13.1%.

With `O=C(NCC1(N2CCOCC2)CCCCC1)c1cc(Cl)ccc1NS(=O)(=O)c1ccc(Oc2ccccc2Cl)cc1`, the inhibition under setting [3] came to 20.2%.

For `CC(C)N(CCN1CCCCCC1)C(=O)c1cc(Cl)ccc1NS(=O)(=O)c1ccc(Oc2ccccc2Cl)cc1`, the inhibition under setting [3] amounted to 15.1%.

`CCCCCC(=O)N[C@H](C(=O)N1CCC(N)CC1)c1ccc(OCc2ccccc2)cc1`: the inhibition is -0.332% (PRVABC59, Concentration 49.5 uM, Number of replicates 2.0, Standard deviation 0.44946257928201355 %); 1.84% (PRVABC59, Concentration 99.01 uM, Number of replicates 2.0, Standard deviation 0.4944088326662578 %); 7.09% (PRVABC59, Concentration 198.0 uM, Number of replicates 2.0, Standard deviation 0.19204329535164696 %).

For the compound `O=C(N[C@@H](CC(=O)N1CCn2c(nnc2C(F)(F)F)C1)Cc1cc(F)c(F)cc1F)c1cc(Cl)ccc1NS(=O)(=O)c1ccc(Oc2ccccc2Cl)cc1`, under setting [3], the inhibition amounted to 18.3%.
